Over roughly 2,900 compounds, “NF-kB SEAP reporter activity, fold change vs agonist alone” has its median near 0.99; the highest 2% begin near 2.6. Some of the results follow.
What was measured:
RAW-Dual [1] = test: NF-kB SEAP reporter activity, fold change vs agonist alone; cytotoxicity flag (confluency mask): cytotoxic (confluency <70% of control); higher = enhanced NF-kB activity
Outline: (§1)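 Supernatant from RAW-Dual macrophages was read after 20 hours for IRF by QuantiLuc luminescence and for NF-κB by QuantiBlue absorbance at 620 nm. The cells (50,000 cells/well in DMEM, 384-well plates, 37 °C, 5% CO2) had received 50 nL of library stock by pin tool and, 1 h later, a PRR agonist. Reporter activity is expressed relative to agonist-alone wells as fold change, and wells were flagged cytotoxic if IncuCyte confluency was under 70% of agonist controls in both mask sets.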

RAW-Dual [2] = test: NF-kB SEAP reporter activity, fold change vs agonist alone; higher = enhanced NF-kB activity
Outline: as §1

RAW-Dual [3] = test: NF-kB SEAP reporter activity, fold change vs agonist alone; cytotoxicity flag (confluency mask): not cytotoxic; higher = enhanced NF-kB activity
Outline: as §1

[4] = agonist: ODN 1826 (TLR9) 0.5 ug/mL
[5] = agonist: Pam2CSK4 (TLR2/6) 0.1 ug/mL
[6] = agonist: Pam3CSK4 (TLR2/1) 0.1 ug/mL
[7] = library stock concentration (final ~1000-fold dilution): 10 mM, cytotoxicity flag (confluency mask): not cytotoxic, agonist: Imiquimod (TLR7) […]
[8] = library stock concentration (final ~1000-fold dilution): 10 mM, cytotoxicity flag (confluency mask): not cytotoxic, agonist: MPLA (TLR4) […]

C=CC(=O)Nc1cc(Nc2nccc(-c3cn(C)c4ccccc34)n2)c(OC)cc1N(C)CCN(C)C.CS(=O)(=O)O (library stock concentration (final ~1000-fold dilution): 10 mM)
NF-kB SEAP reporter activity (RAW-Dual [1]; agonist: LPS (TLR4) 0.1 ug/mL): 2.39
NF-kB SEAP reporter activity (RAW-Dual [1]; [4]): 0.214
NF-kB SEAP reporter activity (RAW-Dual [1]; [5]): 1.28
NF-kB SEAP reporter activity (RAW-Dual [1]; [6]): 0.898

C=CC(=O)Nc1cc(Nc2nccc(-c3cn(C)c4ccccc34)n2)c(OC)cc1N(C)CCN(C)C.CS(=O)(=O)O
NF-kB SEAP reporter activity (RAW-Dual [2]; library stock concentration (final ~1000-fold dilution): 10 mM, cytotoxicity flag (confluency mask): cytotoxic (confluency <70% of control), agonist: MPLA (TLR4) […]): 1.91

O=c1cccccc1O (library stock concentration (final ~1000-fold dilution): 10 mM)
NF-kB SEAP reporter activity (RAW-Dual [3]; agonist: LPS (TLR4) 0.1 ug/mL): 0.876
NF-kB SEAP reporter activity (RAW-Dual [3]; [4]): 1.05
NF-kB SEAP reporter activity (RAW-Dual [3]; [5]): 1.02
NF-kB SEAP reporter activity (RAW-Dual [3]; [6]): 0.828

O=c1cccccc1O
NF-kB SEAP reporter activity (RAW-Dual [2]; [7]): 0.945
NF-kB SEAP reporter activity (RAW-Dual [2]; [8]): 1.26

Cn1c2ccccc2c2c3c(c4c5ccccc5n(CCC#N)c4c21)CNC3=O (library stock concentration (final ~1000-fold dilution): 10 mM)
NF-kB SEAP reporter activity (RAW-Dual [3]; agonist: LPS (TLR4) 0.1 ug/mL): 0.901
NF-kB SEAP reporter activity (RAW-Dual [3]; [4]): 0.414
NF-kB SEAP reporter activity (RAW-Dual [3]; [5]): 0.26
NF-kB SEAP reporter activity (RAW-Dual [3]; [6]): 0.346

Cn1c2ccccc2c2c3c(c4c5ccccc5n(CCC#N)c4c21)CNC3=O
NF-kB SEAP reporter activity (RAW-Dual [2]; [7]): 1.21
NF-kB SEAP reporter activity (RAW-Dual [2]; [8]): 1.43

O=C(O)c1ccc2c3c1cccc3c(=O)n1c3ccccc3nc21 (library stock concentration (final ~1000-fold dilution): 10 mM)
NF-kB SEAP reporter activity (RAW-Dual [3]; agonist: LPS (TLR4) 0.1 ug/mL): 1.96
NF-kB SEAP reporter activity (RAW-Dual [3]; [4]): 1.2
NF-kB SEAP reporter activity (RAW-Dual [3]; [5]): 1.46
NF-kB SEAP reporter activity (RAW-Dual [3]; [6]): 2.15

O=C(O)c1ccc2c3c1cccc3c(=O)n1c3ccccc3nc21
NF-kB SEAP reporter activity (RAW-Dual [2]; [7]): 1.04
NF-kB SEAP reporter activity (RAW-Dual [2]; [8]): 1.33

COc1ccc(CNC(=O)Nc2ncc([N+](=O)[O-])s2)cc1 (library stock concentration (final ~1000-fold dilution): 10 mM)
NF-kB SEAP reporter activity (RAW-Dual [3]; agonist: LPS (TLR4) 0.1 ug/mL): 2.74
NF-kB SEAP reporter activity (RAW-Dual [3]; [4]): 1.64
NF-kB SEAP reporter activity (RAW-Dual [3]; [5]): 0.864
NF-kB SEAP reporter activity (RAW-Dual [3]; [6]): 1.32

COc1ccc(CNC(=O)Nc2ncc([N+](=O)[O-])s2)cc1
NF-kB SEAP reporter activity (RAW-Dual [2]; [7]): 1.2
NF-kB SEAP reporter activity (RAW-Dual [2]; [8]): 1.68

O=[N+]([O-])c1cnc(Sc2nnc(O)n2-c2ccc3c(c2)OCCO3)s1 (library stock concentration (final ~1000-fold dilution): 10 mM)
NF-kB SEAP reporter activity (RAW-Dual [3]; agonist: LPS (TLR4) 0.1 ug/mL): 0.4
NF-kB SEAP reporter activity (RAW-Dual [3]; [4]): 0.202
NF-kB SEAP reporter activity (RAW-Dual [3]; [5]): 0.0784
NF-kB SEAP reporter activity (RAW-Dual [3]; [6]): 0.225

O=[N+]([O-])c1cnc(Sc2nnc(O)n2-c2ccc3c(c2)OCCO3)s1
NF-kB SEAP reporter activity (RAW-Dual [2]; [7]): 0.155
NF-kB SEAP reporter activity (RAW-Dual [2]; [8]): 0.276

N#CC1CCCN1C(=O)CNC12CC3CC(CC(O)(C3)C1)C2 (stereo unspecified) (library stock concentration (final ~1000-fold dilution): 10 mM)
NF-kB SEAP reporter activity (RAW-Dual [3]; agonist: LPS (TLR4) 0.1 ug/mL): 1.32
NF-kB SEAP reporter activity (RAW-Dual [3]; [4]): 0.993
NF-kB SEAP reporter activity (RAW-Dual [3]; [5]): 1.21
NF-kB SEAP reporter activity (RAW-Dual [3]; [6]): 0.994

N#CC1CCCN1C(=O)CNC12CC3CC(CC(O)(C3)C1)C2 (stereo unspecified)
NF-kB SEAP reporter activity (RAW-Dual [2]; [7]): 0.891
NF-kB SEAP reporter activity (RAW-Dual [2]; [8]): 1.02

C/C(=N\NC(=O)c1cccc(S(=O)(=O)N2CCOCC2)c1)c1cc(Cl)ccc1O (library stock concentration (final ~1000-fold dilution): 10 mM)
NF-kB SEAP reporter activity (RAW-Dual [3]; agonist: LPS (TLR4) 0.1 ug/mL): 2.6
NF-kB SEAP reporter activity (RAW-Dual [3]; [4]): 1.9
NF-kB SEAP reporter activity (RAW-Dual [3]; [5]): 1.52
NF-kB SEAP reporter activity (RAW-Dual [3]; [6]): 2.48

C/C(=N\NC(=O)c1cccc(S(=O)(=O)N2CCOCC2)c1)c1cc(Cl)ccc1O
NF-kB SEAP reporter activity (RAW-Dual [2]; [7]): 1.53
NF-kB SEAP reporter activity (RAW-Dual [2]; [8]): 1.65

CC(Nc1nc(N2CCCC2)nc2ccccc12)c1ccccc1 (stereo unspecified) (library stock concentration (final ~1000-fold dilution): 10 mM)
NF-kB SEAP reporter activity (RAW-Dual [3]; agonist: LPS (TLR4) 0.1 ug/mL): 0.851
NF-kB SEAP reporter activity (RAW-Dual [3]; [4]): 0.214
NF-kB SEAP reporter activity (RAW-Dual [3]; [5]): 0.655
NF-kB SEAP reporter activity (RAW-Dual [3]; [6]): 0.588

CC(Nc1nc(N2CCCC2)nc2ccccc12)c1ccccc1 (stereo unspecified)
NF-kB SEAP reporter activity (RAW-Dual [2]; [7]): 0.421
NF-kB SEAP reporter activity (RAW-Dual [2]; [8]): 1.17

O=S(=O)(O)CCCS(=O)(=O)O
NF-kB SEAP reporter activity (RAW-Dual [2]; library stock concentration (final ~1000-fold dilution): 10 mM water, cytotoxicity flag (confluency mask): not cytotoxic, agonist: Imiquimod (TLR7) […]): 0.974
NF-kB SEAP reporter activity (RAW-Dual [2]; library stock concentration (final ~1000-fold dilution): 10 mM water, cytotoxicity flag (confluency mask): not cytotoxic, agonist: MPLA (TLR4) […]): 1.05

O=S(=O)(O)CCCS(=O)(=O)O (library stock concentration (final ~1000-fold dilution): 10 mM water)
NF-kB SEAP reporter activity (RAW-Dual [3]; agonist: LPS (TLR4) 0.1 ug/mL): 1.04
NF-kB SEAP reporter activity (RAW-Dual [3]; [4]): 1.14
NF-kB SEAP reporter activity (RAW-Dual [3]; [5]): 1.14
NF-kB SEAP reporter activity (RAW-Dual [3]; [6]): 0.974

Nc1cccc2c1CN(C1CCC(=O)NC1=O)C2=O (stereo unspecified)
NF-kB SEAP reporter activity (RAW-Dual [2]; [7]): 0.919
NF-kB SEAP reporter activity (RAW-Dual [2]; [8]): 1.01

Nc1cccc2c1CN(C1CCC(=O)NC1=O)C2=O (stereo unspecified) (library stock concentration (final ~1000-fold dilution): 10 mM)
NF-kB SEAP reporter activity (RAW-Dual [3]; agonist: LPS (TLR4) 0.1 ug/mL): 1.14
NF-kB SEAP reporter activity (RAW-Dual [3]; [4]): 0.998
NF-kB SEAP reporter activity (RAW-Dual [3]; [5]): 0.963
NF-kB SEAP reporter activity (RAW-Dual [3]; [6]): 1.1

Cc1cccc2c3c(ccc12)C1=C(C(=O)C3=O)C(C)CO1 (stereo unspecified)
NF-kB SEAP reporter activity (RAW-Dual [2]; [7]): 1.31
NF-kB SEAP reporter activity (RAW-Dual [2]; [8]): 2.12

Cc1cccc2c3c(ccc12)C1=C(C(=O)C3=O)C(C)CO1 (stereo unspecified) (library stock concentration (final ~1000-fold dilution): 10 mM)
NF-kB SEAP reporter activity (RAW-Dual [3]; agonist: LPS (TLR4) 0.1 ug/mL): 0.465
NF-kB SEAP reporter activity (RAW-Dual [3]; [4]): 1.12
NF-kB SEAP reporter activity (RAW-Dual [3]; [5]): 0.72
NF-kB SEAP reporter activity (RAW-Dual [3]; [6]): 0.641

NC(=S)N/N=C/c1ncccc1N
NF-kB SEAP reporter activity (RAW-Dual [2]; [7]): 1.55
NF-kB SEAP reporter activity (RAW-Dual [2]; [8]): 1.56

NC(=S)N/N=C/c1ncccc1N (library stock concentration (final ~1000-fold dilution): 10 mM)
NF-kB SEAP reporter activity (RAW-Dual [3]; agonist: LPS (TLR4) 0.1 ug/mL): 2.34
NF-kB SEAP reporter activity (RAW-Dual [3]; [4]): 1.65
NF-kB SEAP reporter activity (RAW-Dual [3]; [5]): 1.07
NF-kB SEAP reporter activity (RAW-Dual [3]; [6]): 1.81

CCCCCCCCOC(=O)c1cc(O)c(O)c(O)c1 (library stock concentration (final ~1000-fold dilution): 10 mM)
NF-kB SEAP reporter activity (RAW-Dual [1]; agonist: LPS (TLR4) 0.1 ug/mL): 0.521
NF-kB SEAP reporter activity (RAW-Dual [1]; [4]): 0.179
NF-kB SEAP reporter activity (RAW-Dual [1]; [5]): 0.102
NF-kB SEAP reporter activity (RAW-Dual [1]; [6]): 0.171

Reference: the supplement of paper PMC10037445
